Experiment in all cases: cell count relative to DMSO control; melanoma cells; higher = more viable cells
One test concerns MeWo. Conditions: library dose: low library concentration; 72 h.
The test system of the next test is RPMI7951. As to conditions: library dose: low library concentration; 72 h.
Another test deals with RVH-421. As to conditions: library dose: low library concentration; 72 h.
The subject of the next test is SkMel28. Conditions: library dose: low library concentration; 72 h.
The test system of a further test is SkMel30. As to conditions: library dose: low library concentration; 72 h.
Another test concerns SkMel5. Conditions: library dose: low library concentration; 72 h.
For another test, the system named is UACC257. As to conditions: library dose: low library concentration; 72 h.
Another test deals with UACC62. As to conditions: library dose: low library concentration; 72 h.
The subject of a further test is WM115. Conditions: library dose: low library concentration; 72 h.
The subject of a further test is WM1716. Conditions: library dose: low library concentration; 72 h.
For a further test, the system named is WM1745. Conditions: library dose: low library concentration; 72 h.
The test system of another test is WM3526. Conditions: library dose: low library concentration; 72 h.
Another test has as its system WM3619. As to conditions: library dose: low library concentration; 72 h.
The test system of a further test is WM451Lu. As to conditions: library dose: low library concentration; 72 h.
For another test, the system named is 501Mel. As to conditions: library dose: standard library concentration; 72 h.
Another test relates to A101D. As to conditions: library dose: standard library concentration; 72 h.
The next test concerns A2058. As to conditions: library dose: standard library concentration; 72 h.
A further test has as its system A375. Conditions: library dose: standard library concentration; 72 h.
A further test concerns SkMel2. As to conditions: library dose: low library concentration; 72 h.

Some of the results follow. Repeats are few or missing, and single values can be far off.

Regarding `Cn1nnc2c(C(N)=O)ncn2c1=O` [temozolomide] + Cc1cc([N+](=O)[O-])ccc1NS(=O)(=O)c1cc(Cl)ccc1Cl [FH535] (first compound 2 µM, partner dose 1 µM), the cell count worked out at 97.4% in the test with MeWo; 92.4% in the test with RPMI7951; 91.7% with RVH-421; 97.4% with SkMel28; 76.3% in the test with SkMel30; 84.6% in the test on SkMel5. Also, the cell count is 75.1% in the test on UACC257; 84.8% in the test on UACC62; 86.9% in the test on WM115; 96% in the test with WM1716; 87.7% in the test with WM1745; 73.5% in the test on WM3526. The cell count with WM3619 was determined as 115%; with WM451Lu, 95.8%.
Consider `Cn1nnc2c(C(N)=O)ncn2c1=O` [temozolomide] + COc1ccc(COc2ccc(Cc3cnc(N)nc3N)cc2OC)cc1 [GW2580] (first compound 10 µM, partner dose 5 µM), for which the cell count amounted to 63.3% in the test with 501Mel, 81.6% with A101D, 43.5% in the test with A2058 and 107% in the test on A375.
For the compound `O=C(O)c1ccc2c(c1)nc(Nc1cccc(Cl)c1)c1ccncc12` + Cc1cc([N+](=O)[O-])ccc1NS(=O)(=O)c1cc(Cl)ccc1Cl [FH535] (first compound 0.4 µM, partner dose 1 µM), the cell count came out at 98% with MeWo; 114% in the test on RPMI7951; 100% with RVH-421; 97.4% with SkMel28; 96.2% in the test on SkMel2; 84.2% with SkMel30. The cell count turned out to be 91.7% in the test on SkMel5; 77.1% with UACC257; 87.7% with UACC62; 77.9% in the test on WM115; 93.8% in the test on WM1716; 94% with WM1745. In addition, the cell count in the test with WM3526 stood at 81.6%; with WM3619, 120%; in the test on WM451Lu it was 113%.
`O=C(Nc1cc(C(F)(F)F)cc(C(F)(F)F)c1)c1cc(Cl)ccc1O` + C[C@]1(c2nc3c(C(N)=O)cccc3[nH]2)CCCN1 [Veliparib] (first compound 0.016 µM, partner dose 1.4 µM): the cell count came out at 86.5% in the test with MeWo; 85.7% in the test with RPMI7951; 100% in the test with RVH-421; 84.3% in the test on SkMel28; 105% in the test with SkMel30; 83.6% with UACC62. Also, the cell count came to 99.7% in the test on WM115; 91.2% with WM1716; 97.6% in the test with WM1745; 106% with WM3526; 92.6% with WM3619; 107% with WM451Lu.
For the compound `O=C(O)c1ccc2c(c1)nc(Nc1cccc(Cl)c1)c1ccncc12` + O=C1NC(=O)/C(=C/c2ccc(-c3ccc(F)cc3O)o2)S1 [AS252424] (first compound 2 µM, partner dose 5 µM), the cell count in the test with 501Mel was found to be 61.6%; in the test with A101D, 79.5%; in the test on A2058, 91.8%; in the test on A375, 91.3%.
The corresponding values for `O=C(O)[C@@H]1[O][Sb](=[O])([O][Sb]2(=[O])[O][C@H]([C@H](O)CO)[C@H](O)[C@H](C(=O)O)[O]2)[O][C@H]([C@H](O)CO)[C@@H]1O` (some centres undefined) [stibogluconate] + COc1cc(N2CCC(N3CCN(C)CC3)CC2)ccc1Nc1ncc(Cl)c(Nc2ccccc2S(=O)(=O)C(C)C)n1 [NVP-TAE684] (first compound 10 µM, partner dose 0.4 µM) are 74.4%, 82.1%, 58.7% and 106%.
The corresponding values for `O=C(Nc1ccccc1)c1cc([N+](=O)[O-])ccc1Cl` + COc1ccc(COc2ccc(Cc3cnc(N)nc3N)cc2OC)cc1 [GW2580] (first compound 10 µM, partner dose 5 µM) are 52.4%, 84.3%, 88.4% and 123%.
For `O=C(Nc1cc(C(F)(F)F)cc(C(F)(F)F)c1)c1cc(Cl)ccc1O` + CCCCCCCCCCCC1=C(O)C(=O)C=C(O)C1=O [Embelin] (first compound 0.016 µM, partner dose 1.2 µM), the cell count in the test on MeWo was 102%; with RPMI7951 it was 104%; in the test on RVH-421, 94.5%; in the test on SkMel28 it was 102%; in the test with SkMel30, 104%; in the test with SkMel5, 93.5%. Besides, the cell count with UACC257 is 73.5%; in the test on UACC62 it was 93.5%; with WM115, 102%; in the test on WM1716, 118%; in the test on WM1745, 96.6%; in the test on WM3526, 98%. The results for the cell count in the test on WM3619 and in the test with WM451Lu were 102% and 99.3%, respectively.
Regarding `O=C(Nc1cc(C(F)(F)F)cc(C(F)(F)F)c1)c1cc(Cl)ccc1O` + Cn1c(Nc2ccc(C(F)(F)F)cc2)nc2cc(Oc3ccnc(-c4ncc(C(F)(F)F)[nH]4)c3)ccc21 [CHIR265] (first compound 0.016 µM, partner dose 0.08 µM), the cell count with MeWo came to 85.6%; in the test on RPMI7951 it was 67.9%; in the test with RVH-421, 77%; in the test on SkMel28, 72%; with SkMel2 it was 83.6%; in the test on SkMel30, 63%. The cell count in the test with UACC62 is 59.9%; in the test on WM115, 62.5%; in the test on WM1716, 75.2%; in the test with WM1745 it was 79.2%; in the test with WM3526, 56.3%; in the test with WM3619, 81.1%. The compound further returned a cell count in the test with WM451Lu of 128%.

(Values after the supplement of paper PMC4604168 (melanoma cell lines).)
